# Test results as given in PubChem BioAssay AID662 (National Center for Advancing Translational Sciences (NCATS), 2007).
# Out of some 71,000 compounds screened, about 1,800 (2.5%) were called active. This list was built around the results that the source calls inconclusive (neither active nor inactive); the mix of calls is not that of the screen. The call rests on the fitted dose curve; in most records, active means well fitted activation curve with a large enough effect in the signal ratio, with a control signal flat (not every such curve was filed as active); inconclusive means small, poorly fitted or top-dose-only effect, or effect the other way, or a change in a side signal; inactive means flat fitted curve, though single readings scatter; the % refers to the signal ratio. A potency beside an inconclusive call is a rough fit, not a confirmed value.
# Test: Cell signaling CRE-BLA (Fsk stim); on activity change, negative = inhibition: % of control where 0% means no effect
# Conditions: CHO CRE-bla reporter (cAMP response element driving beta-lactamase), forskolin EC10, beta-lactamase ratio; activity change, negative = inhibition: at 38.2 µM (top of the series) unless noted
# In short: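 The 460nm/530nm emission ratio after CCF4 loading defined %Activity, from which AC50 values were obtained. CRE-bla CHO cells received compound dilution series together with an EC10 level of NKH 477 for 3 hours at 37 degrees Celsius.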
# Potency means the concentration at half of the fitted maximal effect; tags describe the fitted curve by direction and shape.
Compound,"activity change, negative = inhibition",Potency
CCCn1c(CN(C)Cc2ccccc2)nc2c1c(=O)n(C)c(=O)n2C,inconclusive: 7.74%,
Cc1ccc(NC(=O)CSc2nnc(-c3ccncc3)n2N)cc1C,inactive: 20.7%,
N[C@H](CO)C(=O)NCC(=O)O,inactive: 2.91% [at 7.6 µM],
Cc1ccc(C)c(/C(=N\N=C(N)N)C2CC2)c1,inactive: 5.34% [at 7.6 µM],
Cc1nc2ccccc2n1CC(=O)NCCN1CCCC1,inactive: -7.04%,
CCn1c2ccccc2c2nc3ccccc3nc21,,active: 2 µM
CCCc1[nH]nc2c1C(c1ccc(Br)s1)C(C#N)=C(N)O2 (stereo unspecified),,"inconclusive: 12.6 µM [rising, single point]"
CC(OC(=O)CNC(=O)c1ccc2c(c1)OCO2)C(=O)NCCC1=CCCCC1 (stereo unspecified),inconclusive: -5.9%,
Cc1cc(N2CCN(c3ccccc3)CC2)n2nnnc2n1,inconclusive: 22.9%,
COCCn1nnnc1C(c1ccc(Cl)cc1)N1CCSCC1 (stereo unspecified),inactive: -0.492%,
CC(=O)N1CCN(c2ccc(NCc3ccc(C)cc3)cc2)CC1,inactive: 7.51%,
CCOC(=O)c1c(-c2ccccc2)nnn1-c1nc(OCC)nc(N2CCCCC2)n1,,"inconclusive: 0.251 µM [rising, full curve]"
O=C(O)c1oc(C(=O)O)c(C(=O)O)c1C(=O)O,inactive: 0.106% [at 7.6 µM],
Cc1cc(S(=O)(=O)Nc2c(C(=O)O)[nH]c3ccccc23)ccc1F,inconclusive: -13.7%,
COc1ccc(C2C(C(C)=O)=C(C)N=c3s/c(=C\c4ccco4)c(=O)n32)c(OC)c1 (stereo unspecified),,"inconclusive: 10 µM [rising, partial curve]"
CN/C=C1\C(=O)C(C)(C)Oc2ccc3ccc(=O)oc3c21,,"inconclusive: 10 µM [rising, partial curve]"
COc1ccc(Cl)cc1S(=O)(=O)N1CCN(C(=O)c2cc(OC)c(OC)c(OC)c2)CC1,,"inconclusive: 0.794 µM [rising, partial curve]"
O=C(Nc1ccccc1)N1CC=C(c2ccccc2)CC1,inactive: -14%,
Cn1c(=O)c(-c2ccccc2)nc2cnc(N3CCOCC3)nc21,,"inconclusive: 5.01 µM [rising, partial curve]"
COc1ccccc1NC(=O)C1=C(C)NC(SCC(=O)c2ccccc2)=C(C#N)C1c1ccco1 (stereo unspecified),inactive: -17.4%,
Cn1c(=O)c2nc(NCc3ccccc3)cnc2n(C)c1=O,inconclusive: 17.9% [fluorescent],
O=C(c1cccc(Cl)c1Cl)N1CCN(c2ccccn2)CC1,inactive: -1.96%,
COC(=O)C1=C(N)Oc2cc(C)n(CC3CCCO3)c(=O)c2C1c1ccc(Cl)cc1 (stereo unspecified),,"inconclusive: 10 µM [falling, partial curve]"
Cc1ccc(-c2nc(-c3cccnc3)no2)cc1,inconclusive: 7.21%,
C=CCN1C(=O)C(O)(CC(=O)c2ccc(-n3cccc3)cc2)c2ccccc21 (stereo unspecified),inconclusive: -11%,
CCOC(=O)c1ccc(NC(=O)CCc2nc(-c3cccc(C)c3)no2)cc1,inactive: 7.82%,

Compound,"activity change, negative = inhibition",Potency
O=C(Nc1ccccc1)N1CCSCC1,inconclusive: 10.5%,
CCn1c(SCC(=O)Nc2nc3ccc(OC)cc3s2)nc2c1c(=O)n(C)c(=O)n2C,,active: 2 µM
CS(=O)(=O)N1CCC2(CCN(c3ccccc3)CC2)CC1,inactive: -3.36%,
COc1ccc(-c2cc(C(F)(F)F)nc(SCC(N)=O)n2)cc1,inconclusive: 26%,
CCCC(C(=O)NCc1ccco1)N(C(=O)CNS(=O)(=O)c1ccc(Cl)cc1)C1CCCC1 (stereo unspecified),inconclusive: 2.55%,
COC(=O)C1=C(NC(=O)c2ccc(C)cc2)CCS1,,"inconclusive: 12.6 µM [rising, partial curve]"
c1nc(NCCN2CCOCC2)c2cc(-c3ccoc3)ccc2n1,inactive: -15.7%,
OC1CCN(c2ncnc3c2nnn3Cc2c(F)cccc2Cl)CC1,,"inconclusive: 10 µM [rising, single point]"
CNc1nc(SCC(=O)OC)nc(N2CCOCC2)n1,,"inconclusive: 6.31 µM [rising, partial curve]"
CC(C)C12CN3CC(C(C)C)(CN(C1)C3c1ccccc1)C2O (stereo unspecified),,"inconclusive: 1 µM [rising, single point]"
O=C(Nc1ccc(N2CCN(C(=O)c3ccco3)CC2)c(Cl)c1)c1cccs1,inconclusive: -23.2%,
O=C(COC(=O)c1cc(-c2ccco2)nc2ccccc12)NCc1ccc2c(c1)OCO2,,"inconclusive: 10 µM [rising, partial curve]"
CCOc1cc2[nH]c(=S)n(CCOC)c(=O)c2cc1OCC,,"inconclusive: 15.8 µM [rising, partial curve]"
Cc1ccc(S(=O)(=O)Oc2ccc(N=Nc3ccc(-c4ccc(N=Nc5c(O)ccc6cc(S(=O)(=O)O)cc(S(=O)(=O)O)c56)c(C)c4)cc3C)cc2)cc1,inconclusive: -6.32%,
CCOC(=O)Cc1c(C)c2c(O)cc(O)cc2oc1=O,inconclusive: 22.1%,
O=C(Cn1[nH]c(=O)c2ccccc2c1=O)Nc1cccc(-c2nnc3n2CCCCC3)c1,inconclusive: -8.29%,
Cc1cc(NC(=O)CSc2nc3c(c(-c4cccnc4)c2C#N)CCC3)no1,,"inconclusive: 3.98 µM [rising, partial curve]"
CCCCCn1c(CN2CCN(c3cccc(Cl)c3)CC2)nc2c1c(=O)n(C)c(=O)n2C,,"inconclusive: 12.6 µM [rising, partial curve]"
Cc1nc(NCc2ccccc2)c2nc(-c3ccccc3)n(CCCN(C)C)c2n1,inactive: -6.17%,
COc1ccc(CCN(Cc2nc3ccccc3c(=O)[nH]2)C(=O)c2ccco2)cc1,inconclusive: -0.583%,
CCOC(=O)c1cnc(-n2nc(C)cc2C)nc1NCc1ccc2c(c1)OCO2,inconclusive: 3.19%,
COc1ccc(NC(=O)CSc2nc(C)cc(C(F)(F)F)n2)cc1,,"inconclusive: 0.126 µM [rising, full curve, poor fit]"
CS(=O)(=O)N1CCC2(CCCN(Cc3ccccc3)C2)CC1,inactive: -6.06%,
O=C(c1ccc(-c2ccccc2)cc1)N1CCN(c2ncccn2)CC1,inconclusive: 18.8%,
CCCCNc1nc(N(C)c2ccccc2)nc(-n2ccnc2)n1,,"inconclusive: 3.16 µM [rising, partial curve]"
